Some of the results follow. The list includes weakly bound sequences.

This assay deals with MaxL homodimer (UniProt P61244). The assay can be described thus: universal protein-binding microarray (PBM). Particulars: PBS-based mixture, 10 nM His-tagged protein dimer, 2% milk, 200 ng/uL BSA, 50 ng/uL salmon testes DNA, 0.02% TX-100; detection with Alexa 488 anti-His …; high values mean tight binding; most listed sequences are background and not binding sites; double strand, one strand shown.
UniProt P61244, sequence (P61244 whole entry): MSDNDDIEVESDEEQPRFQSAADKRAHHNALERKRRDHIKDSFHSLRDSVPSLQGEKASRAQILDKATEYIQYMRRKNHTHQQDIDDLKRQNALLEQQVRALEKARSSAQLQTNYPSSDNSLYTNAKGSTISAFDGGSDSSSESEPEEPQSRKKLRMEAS
In the case of GCCACCCA, the binding signal (normalized occupancy) is 0.0719. To CCAAAGGA belongs 0.072; to GTTATTGA, 0.0784.

For the sequence ACATAATA, the binding signal (normalized occupancy) was 0.0836. The same measure for AGTAATGA: 0.0801; for CAGCAACC: 0.0703.

Regarding AACTAGCG, the binding signal (normalized occupancy) was 0.068.

For CAACACTA, the binding signal (normalized occupancy) turned out to be 0.0772. Take GCAGGAAA: the binding signal (normalized occupancy) was 0.0727. For the sequence ATGGATCA, the binding signal (normalized occupancy) turned out to be 0.0812. The same measure for ACAGGTCA: 0.0797. To CCCACTAC belongs 0.0826; to TGCGAGAA, 0.0792; to AAACGCGC, 0.0747.

In the case of GCAGGGCC, the binding signal (normalized occupancy) turned out to be 0.0761. To CCCAAGTC belongs 0.0748. Regarding CAGGTATA, the binding signal (normalized occupancy) amounted to 0.0785.

Consider CACATAGG, for which the binding signal (normalized occupancy) is 0.0834. The same measure for CAACGAAC: 0.074. For the sequence TACCATGA, the binding signal (normalized occupancy) turned out to be 0.0831. To CCTGTGAC belongs 0.0823. To CCGCGAAG belongs 0.0662. For ATTACGAA, the binding signal (normalized occupancy) turned out to be 0.076. The same measure for GCTAAGCC: 0.068; for ACATTTCG: 0.081; for TGGAAGAA: 0.0762. To CTAGGAGA belongs 0.0761.

Take CATTGTAA: the binding signal (normalized occupancy) was 0.0824. Regarding CAACCTTC, the binding signal (normalized occupancy) was determined as 0.0716. The same measure for CAAAGAAA: 0.0734; for AGATTTGC: 0.0766. The same measure for GGGACGTA: 0.0838. With GAACTTGA, the binding signal (normalized occupancy) was 0.0751.

For the sequence AGTCTTTG, the binding signal (normalized occupancy) is 0.0698.

With AGGGCTGA, the binding signal (normalized occupancy) was 0.0699. Regarding TGCAAGAA, the binding signal (normalized occupancy) was found to be 0.0714. The same measure for TCACTGGA: 0.0697; for CACGTTCC: 0.096.

For the sequence GCCGCAAA, the binding signal (normalized occupancy) came to 0.0648.

As to AAACTGTA, the binding signal (normalized occupancy) stood at 0.072. As for ACGCGTAA, the binding signal (normalized occupancy) is 0.0882. To ACTTTTGA belongs 0.0737; to GCGTGTCA, 0.0867; to GCCCGGAA, 0.0663. For the sequence GTGGCCAC, the binding signal (normalized occupancy) is 0.0892. The same measure for AACGAGGA: 0.088; for CTGCTGTC: 0.0731; for AACACATA: 0.0823. To ATAGTGCG belongs 0.0746. Regarding GGACAACA, the binding signal (normalized occupancy) stood at 0.0742.

Turning to GAAGTTGC, the binding signal (normalized occupancy) was 0.0713. To ATGTTTAA belongs 0.0805; to CTTAAAGC, 0.0706; to GCAAATAC, 0.08. As for GAACCATA, the binding signal (normalized occupancy) was 0.0816.

On to ACTGGAAG, for which the binding signal (normalized occupancy) came to 0.0711. To GTCTAAGA belongs 0.0715. The same measure for GCGACCGA: 0.0672; for GCGGATGA: 0.0741. The same measure for AACGATTG: 0.0733.

AACTATCC: the binding signal (normalized occupancy) came out at 0.0753. To AGGCCACA belongs 0.0798; to GAGTTTCC, 0.069; to ATGACGAC, 0.0755. The same measure for CACGAGCC: 0.0812. To CCTCCACG belongs 0.0912; to CGACCCCA, 0.081; to CATGTTCC, 0.0892. CCGGACTA: the binding signal (normalized occupancy) was 0.0746.

As for CTATAGAG, the binding signal (normalized occupancy) turned out to be 0.0766. As for TAAGGCAA, the binding signal (normalized occupancy) stood at 0.0748. The same measure for ACTCCCGC: 0.0766; for GAAATCCC: 0.0748. To CACAAATC belongs 0.079; to CTGACCCC, 0.0774.

ATAAAAAA: the binding signal (normalized occupancy) worked out at 0.0761. To CCTCTTTC belongs 0.0694. To CCCCTACC belongs 0.0822; to CACACCAA, 0.0763. As for GATCCACA, the binding signal (normalized occupancy) was 0.083. To GGACTCCC belongs 0.0701; to CGGGTAGA, 0.0727. Turning to CACTCTAA, the binding signal (normalized occupancy) is 0.0758.

On to ACGGAGCT, for which the binding signal (normalized occupancy) came to 0.0682. The same measure for CATATACA: 0.0889; for TGGTGTAA: 0.0786. The same measure for GACAGAAA: 0.0707; for ATGGACCA: 0.0778; for AGGCGTTG: 0.0698. The same measure for ACGTATAC: 0.0828. In the case of TAGCATGA, the binding signal (normalized occupancy) turned out to be 0.0921. Regarding CAATTAAG, the binding signal (normalized occupancy) was 0.0717. The same measure for GATGTTTA: 0.0756. On to TCAAATCA, for which the binding signal (normalized occupancy) turned out to be 0.0886. Regarding ATCTGTAA, the binding signal (normalized occupancy) was 0.0823. As to ATAGCGCA, the binding signal (normalized occupancy) is 0.0775. In the case of TGCCGCCA, the binding signal (normalized occupancy) was 0.078. To CTCTCATC belongs 0.0763. To GGCCTTAA belongs 0.0691; to GCGTACAA, 0.0756; to CAGTCAAG, 0.074. As to AACACAAT, the binding signal (normalized occupancy) was found to be 0.0794. The same measure for CCTGACAA: 0.0804.

Turning to AGGTAACT, the binding signal (normalized occupancy) amounted to 0.0746. The same measure for ACATCGGA: 0.0718; for ACCGGATG: 0.0731; for GCGCGCAC: 0.0856.

Turning to CTGTGAGA, the binding signal (normalized occupancy) worked out at 0.0719. The same measure for AGTCAGTA: 0.0696. Take CCAAATCC: the binding signal (normalized occupancy) is 0.0754. To CGTCAGTA belongs 0.0677. To ATGACTGC belongs 0.0794; to ACACAACT, 0.0823.

With CCTCTGCC, the binding signal (normalized occupancy) was 0.0692. To AGCGGCTG belongs 0.0663. The same measure for AGGTTGAG: 0.0752; for TACTTTCA: 0.0733; for GTTTTGTA: 0.0732. Regarding CTGCACGA, the binding signal (normalized occupancy) was found to be 0.0824.

Take AGCACGGC: the binding signal (normalized occupancy) was determined as 0.0739. The same measure for GATTCAAA: 0.0756; for GCTCGCGA: 0.071; for AGCGTGTA: 0.0952. The same measure for TAAGGATA: 0.0782; for AAATTTAA: 0.068. The same measure for AAGGGTTA: 0.0805; for AAAACATT: 0.0754. For the sequence GCTAGTCC, the binding signal (normalized occupancy) worked out at 0.0748. The same measure for AGAGGACT: 0.0739. To CTGTCGGC belongs 0.0682; to GAAAGCTC, 0.0682. To CGGGCTAC belongs 0.0692.

For TCGTGGAA, the binding signal (normalized occupancy) is 0.0835. To GGCCTGGA belongs 0.0719; to AAATGAGC, 0.0726; to GCTTAGCC, 0.0683. The same measure for GCGAGCGC: 0.0707. The same measure for AGCGGGAT: 0.0762.

For the sequence ATACCGAT, the binding signal (normalized occupancy) turned out to be 0.0749. With GGGGTTAA, the binding signal (normalized occupancy) amounted to 0.0752.

Consider TATAAAAA, for which the binding signal (normalized occupancy) was 0.0767.

For the sequence AACTAGCA, the binding signal (normalized occupancy) was found to be 0.0748.

Consider AGTCTATG, for which the binding signal (normalized occupancy) was determined as 0.0714. The same measure for GGCCGCCA: 0.0741; for GGGATTCA: 0.0764; for CCAACACA: 0.0797. To GTGGATGA belongs 0.0862; to ATAGGAGG, 0.0826. To GACACGTA belongs 0.0792. Regarding CGTAAAGC, the binding signal (normalized occupancy) is 0.0697. The same measure for CGTTGCTC: 0.0718.

For the sequence ATTGGAAA, the binding signal (normalized occupancy) was 0.0724. To CTAGATCC belongs 0.0812; to ATCGATTC, 0.0767. The same measure for AAGGAAGA: 0.0722; for CTTGTTCC: 0.0733. Regarding CTTATGTA, the binding signal (normalized occupancy) turned out to be 0.0786. The same measure for GGGTTGCA: 0.0752; for AATCGCTG: 0.0721; for TGCATCCA: 0.0906. CTTTCAGC: the binding signal (normalized occupancy) amounted to 0.0711. To CAGTGAAC belongs 0.08; to AGTGACCC, 0.0751. The same measure for ACTAGCAG: 0.0664; for GCTGTAAC: 0.0745. To AGTGTGAA belongs 0.0757; to CCGTGGCA, 0.077. Turning to AGTGTGAC, the binding signal (normalized occupancy) turned out to be 0.089.

Turning to ATGTTGAA, the binding signal (normalized occupancy) was 0.0794.

As for AGAAGAAT, the binding signal (normalized occupancy) was determined as 0.0735. To CGGCTACC belongs 0.0633. To CTGAATGC belongs 0.073.

Source of the values: publication PMC4242493.
